Results as given in the supplement of paper PMC11417369.
The list shows a part of the results.

What follows are sequences tested on PF3D7_0420300 AP2 domain 1 (GST-tagged) (assay: gcPBM binding intensity (ln(normalized median fluorescence intensity)); higher = stronger DNA binding).
Method in brief: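 Binding intensity is defined as the maximum Masliner-normalised natural-log median intensity across replicate spots for either probe orientation. It was measured on an Agilent 4 × 180k array of primer-extended double-stranded 36-bp intergenic genomic probes and negative controls, to which GST-tagged P. falciparum DNA-binding domains made in E. coli were applied for 1 h in 1× PBS with 1% milk, 0.2 mg/ml BSA, 0.5% salmon testes DNA and 0.03% Triton X-100. Detection was by Alexa488 anti-GST antibody and scanning at 488 nm.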
“GTGTTCTTGTTATACACACACATATTTATATTTATA [CACACA_site6615]” was tested, and the “gcPBM binding intensity (ln)” value was 9.82.
“TTTATTTATATAATTACACACATATATACGCAAATG [CACACA_site2794]” was tested, and the “gcPBM binding intensity (ln)” value was 9.48.
With “TCATTAATTAAATCTTGTACATATTCATATATATAT [XGTACX_site2241]” the “gcPBM binding intensity (ln)” value was 9.33.
In the case of “TTTTATTCATTAATTTGTACTTATCCTTTTGCTTAA [XGTACX_site1243]”, the “gcPBM binding intensity (ln)” value is reported as 9.23.
For “TAAGCCAAGGGATAAATAAAATAACAAAATGAAATC [GTGCAC_negctrl_site601]”, the “gcPBM binding intensity (ln)” value was 9.44.
“AAAGTATAGATGTATACACACACCAAACGTTAAAAA [CACACA_site3081]” was tested, and the “gcPBM binding intensity (ln)” value was 9.67.
With “AAACAAAAAAGAAGCACACATATATATATATATATG [CACACA_site2456]” the “gcPBM binding intensity (ln)” value was 9.59.
For “TATACGCATATATACACACACATATATATATATATA [CACACA_site3416]”, the “gcPBM binding intensity (ln)” value was 9.66.
With “ATCTGAAAAATTAATAGTACAATTAATAATTAAACC [XGTACX_site8523]” the “gcPBM binding intensity (ln)” value was 9.31.
For “TGTTAATTTCATTTTCTACACACCTATCCTTTTTTT [CACACA_site8157]”, the “gcPBM binding intensity (ln)” value was 9.69.
For “ACAAATAAATATTCGCGTACTTATATAATATTACGA [XGTACX_site6428]”, the “gcPBM binding intensity (ln)” value was 9.13.
In the case of “AACAAACAAATAGTTTATTTTGATTTTTTTAAAAAT [CACACA_negctrl_site693]”, the “gcPBM binding intensity (ln)” value is reported as 8.87.
With “AAAAAAAATATCCGACGTACTATTTTCGTAGAAATA [XGTACX_site6292]” the “gcPBM binding intensity (ln)” value was 9.05.
In the case of “TCATATGTGAAACACACACACACACCCAAAAAAACA [CACACA_site3247]”, the “gcPBM binding intensity (ln)” value is reported as 10.1.
With “GAACAAAAATACTTATGTACACATTAGCAAGGAAAA [XGTACX_site5622]” the “gcPBM binding intensity (ln)” value was 9.41.
“TGTTTCTTATTTTTTTCACACACTAATCATTTCAAA [CACACA_site8695]” was tested, and the “gcPBM binding intensity (ln)” value was 9.69.
“ATTATGTTATTATTTTGTACACATAAATAATACGTT [XGTACX_site816]” was tested, and the “gcPBM binding intensity (ln)” value was 9.31.
For “AGAAAAGAAATTAAATGTACACAACTATAACCAAAT [XGTACX_site8084]”, the “gcPBM binding intensity (ln)” value was 9.72.
In the case of “AAAAAAAAAAAATAAAGTACTAAATAATACATTATA [XGTACX_site6203]”, the “gcPBM binding intensity (ln)” value is reported as 9.2.
For “TGTACAACAATTTTTGCACACACCAAAACATAAAAT [CACACA_site1598]”, the “gcPBM binding intensity (ln)” value was 9.69.
With “TTTTATAAAATATAATATAATAATATATGTATAATA [CACACA_negctrl_site1788]” the “gcPBM binding intensity (ln)” value was 8.96.
With “ATATATCTACAAATATGTACACACACACATATATAT [XGTACX_site1075]” the “gcPBM binding intensity (ln)” value was 10.1.
In the case of “AAAAAAAAAAAAAAAAAAAAAAAAATCACACATTGG [TGCATGCA_negctrl_site412]”, the “gcPBM binding intensity (ln)” value is reported as 9.41.
“TTTTGGATGTATTATACATGCATATTATTATAATAT [TGCATGCA_site997]” was tested, and the “gcPBM binding intensity (ln)” value was 8.99.
For “ATATATATATCTAATTGTACATATTTTATAAATAAG [XGTACX_site4840]”, the “gcPBM binding intensity (ln)” value was 9.03.
With “AAATACTGATTTGGTTGTACATGTGCACTATATAAC [XGTACX_site3795]” the “gcPBM binding intensity (ln)” value was 9.35.
In the case of “AAAAATTAAATGTACACACACCTTAAACAATGTCAT [CACACA_site6958]”, the “gcPBM binding intensity (ln)” value is reported as 9.66.
With “TATAATCTAACATAATGTACATGTATATGCACTTTA [XGTACX_site369]” the “gcPBM binding intensity (ln)” value was 9.07.
“ATAAATATATTTATATGTACATATAATTTTACATAT [XGTACX_site5440]” was tested, and the “gcPBM binding intensity (ln)” value was 9.19.
“TTTTTTACAATTAACACACTCAAAAATAATATTAAA [CACACA_site5198]” was tested, and the “gcPBM binding intensity (ln)” value was 9.06.
For “AATTTTTTAAATGTGTGTACATATTATTTAAATAAT [XGTACX_site5967]”, the “gcPBM binding intensity (ln)” value was 9.31.
For “TATATTATATATATATGTACATATGGCAAAACATTA [XGTACX_site7958]”, the “gcPBM binding intensity (ln)” value was 9.33.
With “AAAAAAAAAAAAAAATGTACCCATAAAATAAGCATT [XGTACX_site8576]” the “gcPBM binding intensity (ln)” value was 9.51.
For “AATCACAACGAACACACACACAAAAAAAAAAAAAAA [CACACA_site6790]”, the “gcPBM binding intensity (ln)” value was 9.58.
With “AAAAAAAATAATTTGCGTACATAAAAATTTATAGGA [XGTACX_site3016]” the “gcPBM binding intensity (ln)” value was 9.19.
“AAATTTTTTTTTGTCATATGATGTTTGAACCCAAAT [CACACA_negctrl_site1659]” was tested, and the “gcPBM binding intensity (ln)” value was 9.05.
In the case of “TCCGTATATTTATACGCATGCATTATGAACATTGTT [TGCATGCA_site613]”, the “gcPBM binding intensity (ln)” value is reported as 9.28.
With “TTACATTGTAAAAAGTGTACATATAATTTAATTAAT [XGTACX_site1834]” the “gcPBM binding intensity (ln)” value was 9.14.
“GGATTACAAATAGGTTGTACGTTTTTTTTTTTTTCT [XGTACX_site3605]” was tested, and the “gcPBM binding intensity (ln)” value was 9.38.
With “ATGTAGACTGAAACCACACACACATATATATATATA [CACACA_site606]” the “gcPBM binding intensity (ln)” value was 9.77.
In the case of “AATATAAATACTCCTACACACATATAAATATAAATA [CACACA_site7419]”, the “gcPBM binding intensity (ln)” value is reported as 9.74.
“TCCACATTAATGTAATGTACAAAATTAGAAAATAAA [XGTACX_site6287]” was tested, and the “gcPBM binding intensity (ln)” value was 9.06.
“TTTTGATTAAGTGAATTTTTTTATTTATATAAATAT [TGCATGCA_negctrl_site479]” was tested, and the “gcPBM binding intensity (ln)” value was 9.
“CATACATACATATATACACACATATATAATAATATA [CACACA_site2678]” was tested, and the “gcPBM binding intensity (ln)” value was 9.71.
“TACGAATTAAAAAAGAGTACAAATAAAATATCTACA [XGTACX_site7412]” was tested, and the “gcPBM binding intensity (ln)” value was 9.18.
“AATTAGCTCAAAGGTTGTACAAATATATTTTAATGG [XGTACX_site2352]” was tested, and the “gcPBM binding intensity (ln)” value was 9.21.
“TTTTAAACACCAATCAAAAAAATATAAATATAAATA [TGCATGCA_negctrl_site552]” was tested, and the “gcPBM binding intensity (ln)” value was 9.08.
For “AGGGAATAAGTAAGGTGTACATAATTATGTTACTTT [XGTACX_site6152]”, the “gcPBM binding intensity (ln)” value was 9.36.
With “TTTTTTTATTTTATAAAGCAAAAATAAGAATGAAAT [XGTACX_negctrl_site270]” the “gcPBM binding intensity (ln)” value was 8.92.
With “TATATGTATGTATGTACACACAAAAAATGGAATATA [CACACA_site3717]” the “gcPBM binding intensity (ln)” value was 9.67.
For “TGTTGATTTCTCAAATGTACTTTACTTTTCTTCAGA [XGTACX_site7916]”, the “gcPBM binding intensity (ln)” value was 9.08.
In the case of “AATTTATTTTTTTAATGTACATATGGTATAAATATA [XGTACX_site8012]”, the “gcPBM binding intensity (ln)” value is reported as 9.16.
In the case of “TTTTTTTTTTTTAATTGTACATTTTATATAAACTTT [XGTACX_site6806]”, the “gcPBM binding intensity (ln)” value is reported as 9.16.
With “AATATATATATATGTACACACTCCAATACATATACA [CACACA_site2682]” the “gcPBM binding intensity (ln)” value was 9.42.
In the case of “TTAAGAATATCTTAGAGTACATTTTATCATCTTAAA [XGTACX_site8298]”, the “gcPBM binding intensity (ln)” value is reported as 8.78.
For “TCTTTTTAAATTACTATAATACATTCATAAATTATA [GTGCAC_negctrl_site448]”, the “gcPBM binding intensity (ln)” value was 8.89.
